# Test results reported in a collection of fitness landscapes (doi:10.1016/j.celrep.2020.107928).
# Whole data set: some 81,000 sequences, median “one-hybrid fitness for binding NBS DNA” near -0.1, cut for the highest 2% near 0.36. The list shows a part of the results.
# B1: Caulobacter ParB omega fusion; a variant is named by its letters at X, in order, B8GW30 (parent)
# chain: MESVVVGEPGMSEGRRGLGRGLSALLGEVDAAPAQAPGEQLGGSREAPIEILQRNPDQPRRTFREEDLEDLSNSIREKGVLQPILVRPSPDTAGEYQIVAGERAWRAAQRAGLKTVPIMVRELDDLAVLEIGIIENVQRADLNVLEEALSYKVLMEKFERTQENIAQTIGKSXSHVANXMRLLXLPDEVQSYLVSGELTAXHARAIAAAADPVALAKQIIEGGLSVRETEALARKAPNLSAGKSKGGRPPRVKDTDTQALESDLSSVLGLDVSIDHRGSTGTLTITYATLEQLDDLCNRLTRGI
# Variants of: B1
# Assay: one-hybrid fitness for binding NBS DNA (the Noc-binding site; scaled: cognate 1, non-cognate 0); higher = stronger binding
# Settings: with NBS DNA site
# Outline: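 Values were rescaled so that cognate is 1 and non-cognate is 0. Each is a fitness, the log change in a variant's read ratio to wild type from Illumina reads of plasmids before and after selection, with three replicate libraries pooled and variants under 10 reads dropped. Selection of the Caulobacter ParB libraries, four specificity codons randomised, used E. coli USO with a HIS3 reporter, site 19 bp from the promoter, on M9-minus-histidine with 0.1 mM IPTG and 5 mM 3-AT for 48 hours at 37°C.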
row,Variant,one-hybrid fitness for binding NBS DNA
1,PILE,≤ 0.2
2,KPGR,≤ 0.2
3,HTLD,≤ 0.2
4,NESS,≤ 0.2
5,VSHF,≤ 0.2
6,KLIV,≤ 0.2
7,RQYR,0.368
8,QFFT,≤ 0.2
9,GRKC,≤ 0.2
10,DIPV,≤ 0.2
11,PMDW,≤ 0.2
12,YRHC,≤ 0.2
13,HGPL,≤ 0.2
14,TENF,≤ 0.2
15,RTFC,≤ 0.2
16,LIYG,≤ 0.2
17,YFLT,≤ 0.2
18,GHMS,≤ 0.2
19,RSHF,≤ 0.2
20,QQNA,0.421
21,MNFR,≤ 0.2
22,MKWS,≤ 0.2
23,QPRF,≤ 0.2
24,IHAT,≤ 0.2
25,HFNK,≤ 0.2
26,RISF,≤ 0.2

row,Variant,one-hybrid fitness for binding NBS DNA
1,SPSI,≤ 0.2
2,IHMC,≤ 0.2
3,NNLI,≤ 0.2
4,PASY,≤ 0.2
5,IGRS,≤ 0.2
6,ARCV,≤ 0.2
7,MDIT,≤ 0.2
8,IPLV,≤ 0.2
9,DPVQ,≤ 0.2
10,PVTE,≤ 0.2
11,WGCR,≤ 0.2
12,QIYF,≤ 0.2
13,RTWE,≤ 0.2
14,VNHF,≤ 0.2
15,DEST,≤ 0.2
16,CFNS,≤ 0.2
17,VSDL,≤ 0.2
18,RWLS,≤ 0.2
19,GAPP,≤ 0.2
20,RHMG,≤ 0.2
21,KCQT,≤ 0.2
22,RQKC,0.381
23,HAYC,≤ 0.2
24,FKNI,≤ 0.2
25,YSNE,≤ 0.2
26,HDQC,≤ 0.2

row,Variant,one-hybrid fitness for binding NBS DNA
1,ITKF,≤ 0.2
2,KACT,≤ 0.2
3,PQSV,≤ 0.2
4,QCPP,≤ 0.2
5,RVAW,≤ 0.2
6,LDEA,≤ 0.2
7,QKNE,≤ 0.2
8,LPAL,≤ 0.2
9,EGQS,≤ 0.2
10,VIAR,≤ 0.2
11,KTQI,≤ 0.2
12,RYCN,≤ 0.2
13,CMPI,≤ 0.2
14,QEHW,≤ 0.2
15,TIET,≤ 0.2
16,LVNT,≤ 0.2
17,SADF,≤ 0.2
18,NRYC,≤ 0.2
19,RGLA,≤ 0.2
20,APDA,≤ 0.2
21,HHQG,≤ 0.2
22,TKCG,≤ 0.2
23,KPSR,≤ 0.2
24,QRDE,≤ 0.2
25,GVSR,≤ 0.2
26,WPPG,≤ 0.2

row,Variant,one-hybrid fitness for binding NBS DNA
1,FGHA,≤ 0.2
2,SRKT,0.274
3,CAKK,≤ 0.2
4,VQTS,≤ 0.2
5,YDET,≤ 0.2
6,NCLC,≤ 0.2
7,RWHH,≤ 0.2
8,CFIR,≤ 0.2
9,RCFE,≤ 0.2
10,VEWR,≤ 0.2
11,TSVV,≤ 0.2
12,PRKK,≤ 0.2
13,NVCN,≤ 0.2
14,ATMM,≤ 0.2
15,RTVT,0.393
16,MLVV,≤ 0.2
17,LNTD,≤ 0.2
18,PYPE,≤ 0.2
19,QHND,≤ 0.2
20,TWTA,≤ 0.2
21,HFKR,≤ 0.2
22,TMLL,≤ 0.2
23,SSLR,≤ 0.2
24,QLPV,≤ 0.2
25,DIET,≤ 0.2
26,LQTR,≤ 0.2

row,Variant,one-hybrid fitness for binding NBS DNA
1,FSFS,≤ 0.2
2,KKKN,≤ 0.2
3,ETMC,≤ 0.2
4,WPVS,≤ 0.2
5,RWSC,≤ 0.2
6,QITG,≤ 0.2
7,YYIC,≤ 0.2
8,TLHK,≤ 0.2
9,IRLT,≤ 0.2
10,KLPL,≤ 0.2
11,MAMW,≤ 0.2
12,DDDT,≤ 0.2
13,RYNN,≤ 0.2
14,SMAT,≤ 0.2
15,SMHC,≤ 0.2
16,YALH,≤ 0.2
17,PTLT,≤ 0.2
18,IYPL,≤ 0.2
19,VDST,≤ 0.2
20,MAIW,≤ 0.2
21,QSYL,≤ 0.2
22,MCEG,≤ 0.2
23,TCYE,≤ 0.2
24,HNLK,≤ 0.2
25,KELQ,≤ 0.2
26,SKNQ,≤ 0.2

row,Variant,one-hybrid fitness for binding NBS DNA
1,SFEM,≤ 0.2
2,VEVP,≤ 0.2
3,LGTQ,≤ 0.2
4,RLCH,≤ 0.2
5,DSPC,≤ 0.2
6,MAKK,≤ 0.2
7,RFTE,≤ 0.2
8,KAQT,≤ 0.2
9,MLSE,≤ 0.2
10,IGVC,≤ 0.2
11,AING,≤ 0.2
12,RNPP,≤ 0.2
13,KKGA,≤ 0.2
14,PPGV,≤ 0.2
15,FKPN,≤ 0.2
16,YLVI,≤ 0.2
17,WATN,≤ 0.2
18,WHLS,≤ 0.2
19,EFSR,≤ 0.2
20,RNFI,≤ 0.2
21,RLRK,≤ 0.2
22,WDRC,≤ 0.2
23,HWST,≤ 0.2
